Publication PMC6919601, “Identification of Plasmodium dipeptidyl aminopeptidase allosteric inhibitors by high throughput screening” (PLoS ONE, 2019)
Screen size: about 110,000 compounds; about 230 (0.21%) showed an effect of 50% or more. The list shows a part of the results.

What follows are compounds tested against DPAP1 (Plasmodium falciparum, UniProt Q8IIJ9) (assay: primary screen, percent inhibition; read by cleavage of a fluorogenic dipeptide substrate; higher = more effect of the substance).
Set-up: species or system P. falciparum D10 trophozoite lysates; single well
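Further: 30 min substrate incubation versus DMSO and 10 µM JCP410 controls.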

Chain of DPAP1 (Q8IIJ9 whole entry, looked up): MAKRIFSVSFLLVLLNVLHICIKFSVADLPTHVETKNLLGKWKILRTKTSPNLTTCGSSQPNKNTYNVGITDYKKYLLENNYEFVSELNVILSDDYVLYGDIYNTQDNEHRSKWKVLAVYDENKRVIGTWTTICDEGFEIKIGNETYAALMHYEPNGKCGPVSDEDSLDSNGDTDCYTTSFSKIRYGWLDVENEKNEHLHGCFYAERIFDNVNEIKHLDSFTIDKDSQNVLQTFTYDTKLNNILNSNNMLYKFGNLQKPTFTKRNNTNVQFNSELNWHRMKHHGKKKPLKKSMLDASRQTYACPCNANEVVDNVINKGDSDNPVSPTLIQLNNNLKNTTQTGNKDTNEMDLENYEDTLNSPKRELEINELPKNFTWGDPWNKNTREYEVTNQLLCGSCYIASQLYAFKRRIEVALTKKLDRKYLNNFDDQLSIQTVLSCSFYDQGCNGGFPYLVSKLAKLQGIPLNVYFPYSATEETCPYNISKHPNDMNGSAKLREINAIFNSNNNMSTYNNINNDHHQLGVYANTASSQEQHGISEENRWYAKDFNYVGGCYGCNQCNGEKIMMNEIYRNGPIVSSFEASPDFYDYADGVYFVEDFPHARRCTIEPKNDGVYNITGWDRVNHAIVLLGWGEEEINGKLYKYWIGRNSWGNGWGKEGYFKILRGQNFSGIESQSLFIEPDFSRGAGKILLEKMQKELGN

SMILES	% Inhibition @ 10 uM [%]
N#CC1=C(N)Oc2[nH]nc(-c3ccccn3)c2C12C(=O)Nc1ccccc12 (centres unmarked)	-6.58
CCOC(=O)N1CCC(NC(=O)CN(C)S(=O)(=O)c2ccc3nc(C)sc3c2)CC1	-5.89
C1=C(c2ccccc2)n2ncnc2NC1c1ccccc1 (centres unmarked)	-3.86
COc1ccccc1OCC(=O)Nc1sc(Cc2ccccc2)c(C)c1C(N)=O	-1.6
CCCN1C/C(=C\c2ccc(N(C)C)cc2)C2=NN(C(C)=O)C(c3ccc(N(C)C)cc3)C2C1 (centres unmarked)	10.3
c1cncc(-c2nnc3n2CCCCC3)c1	11.6
CC(O)c1nc2ccccc2n1C (centres unmarked)	4.3
O=C(c1cc(-c2ccc(O)cc2)on1)N1CCOCC1	5.1
COc1ccc(Br)cc1CNCC1CCCO1 (centres unmarked)	0.389
COc1ccc(-n2nnc(-c3nc(-c4cccnc4)no3)c2N)cc1OC	5.71
CC(Oc1ccc(Cl)cc1Cl)C(=O)N1CCN(C)CC1 (centres unmarked)	-2.15
O=C(NCCCO)/C(=C/c1ccccc1)NC(=O)c1cccc(Br)c1	-4.49
Sc1nnc2n(-c3ccccc3)c3ccccc3n12	-2.29
Cc1ccc(S(=O)(=O)N2CCCC(C(=O)NCCc3ccccc3C)C2)cc1 (centres unmarked)	-4.67
O=C(Nc1ccc(Oc2ccccc2)cc1)c1cccnc1	-3.72
COc1ccc(OCc2ccc(C(=O)Nc3cccc(C(=O)O)c3)cc2)cc1	3.01
COc1ccccc1NC(=O)CN(C)S(=O)(=O)c1ccc(OC)c(OC)c1	3.53
O=C(NCc1ccc(Cl)cc1)C(=O)Nc1ccccc1	4.54
CN1CCN(c2nc3c(N)ncn(CC(O)CO)c-3n2)CC1 (centres unmarked)	4.57
CC(NC(=O)c1cc2oc3ccccc3c2n1C)c1ccc2c(c1)OCCO2 (centres unmarked)	-0.447
CCCN1C/C(=C\c2cccc(OC)c2OC)C(=O)/C(=C/c2cccc(OC)c2OC)C1	5.02
Cn1c(=O)c2ncnnc2n(C)c1=O	9.1
Cc1cc(OCC(O)CN2CCN(Cc3ccc4c(c3)OCO4)CC2)cc(C)c1Cl (centres unmarked)	-5.35
Brc1ccc(CN2CCN(C/C=C/c3ccccc3)CC2)o1	-1.98
Brc1csc(CN2CCN(Cc3ccc4c(c3)OCO4)CC2)c1	-4.35
CCn1c(SCC(=O)Nc2cccc(Br)c2)nc2c1c(=O)n(C)c(=O)n2C	-1.64

SMILES	% Inhibition @ 10 uM [%]
CCC(NC(=O)[C@@H](C[C@H](C)c1ccccc1)NC(=O)c1ccc(-c2ccccc2Cl)cc1)C(=O)c1nnc(-c2ccccc2)o1 (some centres unmarked)	-5.2
COc1ccc(NC(=O)CN(c2cccc(F)c2)S(C)(=O)=O)c(OC)c1	3.75
N#Cc1c(NC(=O)CCC(=O)O)sc2c1CCCCC2	7.1
CCN(CC)CCNc1nc2c(c(=O)n(C)c(=O)n2C)n1CC(O)COc1cccc(C)c1 (centres unmarked)	-2.91
CCCCCC1CC(=O)N(Cc2ccc(Cl)cc2)C(=O)N1 (centres unmarked)	-5.24
O=C(O)c1ccccc1C(=O)c1ccc2c(c1)Cc1ccccc1-2	1.54
O=C(Nc1ccc2ccccc2c1)N(Cc1ccccc1)c1ccccc1	3.9
O=C1CC(c2ccc(Cl)cc2)NC(NC(=O)CCCOc2ccccc2)=N1 (centres unmarked)	-7.21
CC1CC(C)CN(C(=O)Cn2c(-c3nonc3N)nc3ccccc32)C1 (centres unmarked)	-0.116
N#Cc1c(C(F)(F)F)cc(-c2cccs2)nc1SCc1nc(N)nc(N2CCOCC2)n1	64.2
CCN(CC)CCN(C)CCC(C)c1ccccc1 (centres unmarked)	-5.65
O=C(O)C1C2C=CC(C2)C1C(=O)N1CCC(Cc2ccccc2)CC1 (centres unmarked)	-1.42
CCc1nnc(NS(=O)(=O)c2ccc(NC(=O)c3ccccc3)cc2)s1	1.24
CCCC1CCc2c(sc(NC(=O)OCC)c2C#N)C1 (centres unmarked)	3.72
CCCc1cc(NCCOCCO)n2c(nc3ccccc32)c1C#N	0.131
O=C(c1cccs1)C1CN2CCC1CC2 (centres unmarked)	10.4
CCOC(=O)N1CCC(/N=c2/c(-c3ccc(C)cc3)c(O)c2=O)CC1	1.69
CCCN1CCN(C(=O)Cn2cccc2C(=O)c2ccccc2)CC1	1.15
S=C1NCN(Cc2ccco2)CN1Cc1ccccc1	-5.62
Cn1cc(CCCC(=O)NCc2ccccc2)c2ccccc21	0.387
O=C(Nc1cccc(C(=O)O)c1)/C(=C/c1ccccc1)NC(=O)c1cccc(Br)c1	-1.64
N#CCNC(=O)c1cc2nc(-c3ccco3)cc(C(F)(F)F)n2n1	-2.22
CCC/C(=N\CCc1c(C)[nH]c2ccc(C)cc12)C1=C(O)CC(C)(C)CC1=O	1.03
COc1ccc(CCC(O)C2(O)CCCCC2)cc1 (centres unmarked)	-0.305
Nc1c(C(=O)Nc2ccc(F)cc2F)sc2nc(-c3cccs3)ccc12	0.727
O=c1c(CN2CCc3ccccc3C2)coc2ccccc12	2.23

SMILES	% Inhibition @ 10 uM [%]
O=C(COc1ccc(Cl)cc1Cl)Nc1ccccc1N1CCOCC1	2.22
CN1CCCC(CN2c3ccccc3Sc3ccccc32)C1 (centres unmarked)	-4.26
CCc1ccc(C2CC(=O)NC3=C2C(=O)CC(c2cccs2)C3)cc1 (centres unmarked)	1.97
CC1CCN(C(=O)c2cc(Cl)cc(Cl)c2NC(=O)c2ccco2)CC1	-2.22
Cc1cc2[nH]c3c4ccccc4ncc3c2cc1C	1.57
CC(C)c1c(O)nc(SCCN(C)C)nc1O	-0.289
CCN(CC)C(=O)CSc1nc(-c2ccc(C)cc2)nc2c1COC(C)(C)C2	-4.02
CCOc1ccc(NC(=O)c2ccc(N(Cc3ccccc3C)S(C)(=O)=O)cc2)cc1	-3.29
CN(CCc1ccccn1)C1CCSC1 (centres unmarked)	-3.27
Cc1ncc(CO)c2c1Oc1nc(-c3ccccc3)nc(S)c1C2	22.5
Cc1cc(C)nc(NS(=O)(=O)c2ccc(NC(=O)Nc3ccc(Cl)cc3)cc2)n1	-2.27
CCOC(=O)N1CCN(C(=O)C(NC(=O)c2ccc(CC)cc2)C(C)C)CC1 (centres unmarked)	-4.04
COc1ccc(C2N[C@H](C(=O)O)CS2)cc1 (some centres unmarked)	-2.51
O=C(O)c1ccc(NC(=O)C(c2ccccc2)c2ccccc2)cc1	5.77
Cc1nn(-c2ccccc2)c2nc(C3CC3)cc(C(=O)NCc3ccccc3)c12	3.06
CC1CCc2c(sc(N)c2C(=O)NC2CCCCC2)C1 (centres unmarked)	-5.34
Cc1ccc(NC(=O)NC(C)(C)C)cc1	-1.78
CC(C(=O)NCc1cccnc1)n1c2ccccc2c2cnn(C)c(=O)c21 (centres unmarked)	-2
CCCC(=O)/N=C1\SC2CS(=O)(=O)CC2N1Cc1ccccc1 (centres unmarked)	2.21
Cn1c(=O)c(-c2ccccc2)nc2ccccc21	-3.65
Nc1ccc(Br)c(NC(=O)c2ccccc2)c1	6.7
O=C(Nc1noc2c1COc1ccccc1-2)NC1CCCCC1	-0.255
O=S(=O)(NCc1csc2c1CCCC2)c1ccc(-n2cnnn2)cc1	5.88
CCOc1ccccc1C(=O)Nc1cccc(Cl)c1C	3.8
CC(NC(=O)NC1CCCCC1)c1ccccc1 (centres unmarked)	-0.425
COc1ccc(-c2nc3cc(C)ccn3c2NC(=O)C(C)C)cc1	-4.23

SMILES	% Inhibition @ 10 uM [%]
CCOc1ccc(CCNCc2c(C)[nH]c(C)c2C(=O)O)cc1	-3.67
COc1ccc(-c2nc(C(F)(F)F)c(OC)o2)cc1OC	-1.63
NC(Cc1ccc(OC(F)(F)F)cc1)C(=O)O (centres unmarked)	-3.07
CCOC(=O)Nc1ccc2c(c1)N(C(=O)CCN1CCN(CCO)CC1)c1ccccc1CC2	-4.39
CC(C)C1Nc2c(C(=O)O)cccc2C2C=CCC21 (centres unmarked)	-1.2
CCN(CC)C(=O)/C=C/c1ccc(Cl)cc1	3
O=[N+]([O-])c1cc(NCC2CCCCC2)ccc1Cl	0.217
CC(=O)Nc1ccc(NC(=O)C(C)Oc2ccc(C)cc2)cc1 (centres unmarked)	-5.13
CN1CCC(N(C)c2ncnc3sc4c(c23)CCCC4)CC1	1.83
CCC1CCc2c(sc(NC(=O)c3ccccc3)c2C(N)=O)C1 (centres unmarked)	11.6
Cc1ccc(-c2noc(CN(C)S(=O)(=O)c3ccc(C)cc3)n2)cc1	5.42
CCc1ccc2[nH]c3nc(SC(C)C)nnc3c2c1	4.18
CC(C)C[C@H](NC(=O)c1ccnc(N2CCCC2)c1)C(=O)NCC#N	-2.35
CCn1cc(C(=O)O)c(=O)c2cnc(N3CCN(C(=S)NCc4ccccc4)CC3)nc21	-3.23
N#CC1=C(N)Oc2cc(N)ccc2C12C(=O)Nc1ccc(Br)cc12 (centres unmarked)	2.13
CCOC(=O)c1c(C)oc2nc(C)nc(NCCN(Cc3ccco3)C3CCCC3)c12	3.26
Cc1cc(O)c(C2=NCCSC(c3cccc(Cl)c3Cl)C2)c(=O)o1 (centres unmarked)	-0.0372
Cc1ccc(NC(=O)Cn2cnc3c2c(=O)n(C)c(=O)n3C)c(C)c1	-2.17
CCOc1cccc(C(=O)Nc2cccc(Cl)c2)c1	-4.38
Cn1c(=O)n(Cc2ccc(Br)cc2)c2ccccc21	2.13
CS(=O)(=O)N1c2ccccc2C=CC1c1c[nH]c2ccccc12 (centres unmarked)	1.84
COc1ccc(/C=C2/C(=N)N3C(SC)=NSC3=NC2=O)cc1Br	-2.87
CCOC(=O)c1ccc(NC(=O)COc2cccc(C)c2)cc1	-5.51
CC1CC2(CCCCCC2)NCc2ccccc21 (centres unmarked)	-13.3
CN(C)c1ccc(C2CC(c3ccc(Cl)cc3)=NN2c2ccccc2)cc1 (centres unmarked)	-0.267
Cc1ccc(C(=O)Nc2ccc(C(N)=O)cc2)cc1Br	1.62
